We go through 6 substances from paper PMC10707739.

In the series the test system is P02185. The series can be described thus: native gel or EMSA; blue native PAGE (BN-PAGE, 6-21% gradient gel, no denaturant in the gel) of amyloids (formed 24 h, 40 °C, pH 5.5, 5 mg/mL, 10 mM sodium phosphate) after 24 h incubation at 0-8 M urea, 20 °C, 0.5 mg/mL; band and lane intensities give the fractions of amyloid, ~1 MDa intermediate …. In general terms: In EMSA bound probe runs differently from free probe, usually more slowly.

In turn, ApoMb M131W (no sequence given) showed a [urea]1/2Agr-M (midpoint of the transition intermediate aggregates to monomer) of 5.1 M.
As for ApoMb L115F (no sequence given), the [urea]1/2Agr-M (midpoint of the transition intermediate aggregates to monomer) was determined as 5.7 M; the “fraction of aggregates at 8 M urea (fAgr(8M urea))” value was “is not zero and is in the range 0.15–0.5”.
As for ApoMb L115A (no sequence given), the [urea]1/2Agr-M (midpoint of the transition intermediate aggregates to monomer) was 5.6 M.
Still for that read-out and setting: then ApoMb V10F (no sequence given), with 5.8 M.
On the same count and under the same terms, next, ApoMb M131A (no sequence given): 4.8 M; ApoMb V10A (no sequence given): 4.8 M.
